Measurements from PubChem BioAssay (Tox21).
Records with an inconclusive call do not appear. Unless noted, calls come from the whole dose curve; as a rule, active = well fitted curve in the direction sought with a large enough effect in the repeat runs; inconclusive = weak or mixed curves; inactive = no such curve, though single readings can be large; an effect the other way counts as inactive or inconclusive. Where a structure was tested more than once in an assay, its records may differ in their call. For part of its entries the source gives two or more results. The list is limited to them. An entry can have further records. Values given together are repeated measurements in other runs, samples, wells, individuals or studies. Marks in square brackets tell the records apart. The letters are not those of the source and start again with each entry.

Assay: qHTS assay for small molecules that induce genotoxicity in human embryonic kidney cells expressing luciferase-tagged ATAD5 - cell viability (AID 651634; calls by dose curve; note: nearly all actives have a fitted effect of over 25% in size)
Conditions: HEK293T ATAD5-luc cells viability, CellTiter-Fluor, 15.5 h; series mostly up to 83.3 µM
Outline: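 Fluorescence from CellTiter-Fluor, reporting protease activity within live cells, served as the viability read-out. HEK293T cells carrying luciferase-tagged ATAD5 had been treated with compound for 15.5 hr at 37C.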
Potency is the fitted concentration of half-maximal effect.

Row | Compound | Potency
1 | COc1cccc2c1C(=O)c1c(O)c3c(c(O)c1C2=O)C[C@@](O)(C(=O)CO)C[C@@H]3O[C@H]1C[C@H](N)[C@H](O)[C@H](C)O1 | inactive [sample A] and active: 11.9 µM [sample B] and active: 27.3 µM [sample C]
2 | CCCCC/C=C/C=C/C=O | active: 19.2 µM [sample A] and inactive [sample B]
3 | Cn1cnc([N+](=O)[O-])c1Sc1ncnc2nc[nH]c12 | inactive [sample A] and active: 27.3 µM [sample B]
4 | C=CC(C)(CCC=C(C)C)OC(C)=O (configuration not stated) | inactive [sample A] and active: 48.6 µM [sample B]

Assay: qHTS assay to identify small molecule antagonists of the glucocorticoid receptor (GR) signaling pathway - cell viability counter screen (AID 720693); note: nearly all actives have a fitted effect of over 55% in size
Conditions: GR-bla HeLa viability, CellTiter-Glo luminescence, 18 h, with 5 nM dexamethasone present; series mostly up to 58.5 µM

Row | Compound | Potency
5 | CC(=O)O[C@]1(C(C)=O)CC[C@H]2[C@@H]3C=C(Cl)C4=CC(=O)[C@@H]5C[C@@H]5[C@]4(C)[C@H]3CC[C@@]21C | inactive [sample A] and active: 21.9 µM [sample B]
6 | Oc1ccc(O)cc1 | inactive [sample A] and active: 54.6 µM [sample B]
7 | COc1cccc2c1C(=O)c1c(O)c3c(c(O)c1C2=O)C[C@@](O)(C(=O)CO)C[C@@H]3O[C@H]1C[C@H](N)[C@H](O)[C@H](C)O1 | inactive [sample A] and active: 12 µM [sample B] and active: 1.38 µM [sample C]
8 | C#C[C@]1(O)CC[C@H]2[C@@H]3CCC4=Cc5oncc5C[C@]4(C)[C@H]3CC[C@@]21C | inactive [sample A] and active: 54.9 µM [sample B]
9 | Cn1cnc([N+](=O)[O-])c1Sc1ncnc2nc[nH]c12 | inactive [sample A] and active: 866 nM [sample B]
10 | Cc1ccc(C(=O)c2cc(O)c(O)c([N+](=O)[O-])c2)cc1 | inactive [sample A] and active: 49 µM [sample B]

Assay: qHTS assay to identify small molecule antagonists of the thyroid receptor (TR) signaling pathway (AID 743065); note: nearly all actives have a fitted effect of over 55% in size
Conditions: GH3.TRE-Luc, T3-stimulated luciferase inhibition, 23.5 h; series mostly up to 70.3 µM
Outline: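 Antagonism measured as loss of luciferase signal in GH3 cells stably carrying a TRE-luciferase reporter, co-treated with compound and T3 (1 nM final) for 23.5 h at 37 C. Viability was read in the same well by CellTiter-Fluor.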

Row | Compound | Potency
11 | COc1cccc2c1C(=O)c1c(O)c3c(c(O)c1C2=O)C[C@@](O)(C(=O)CO)C[C@@H]3O[C@H]1C[C@H](N)[C@H](O)[C@H](C)O1 | inactive [sample A] and active: 944 nM [sample B] and active: 86.2 nM [sample C]
12 | Brc1cc(Oc2cc(Br)c(Br)c(Br)c2Br)c(Br)c(Br)c1Br | active: 9.73 µM [sample A] and inactive [sample B]
13 | CCCCC/C=C/C=C/C=O | inactive [sample A] and active: 68.6 µM [sample B]
14 | Cn1cnc([N+](=O)[O-])c1Sc1ncnc2nc[nH]c12 | inactive [sample A] and active: 54.5 µM [sample B]
15 | CCCCCCCCCCCO | inactive [sample A] and active: 27.3 µM [sample B]
16 | C[C@]12CC[C@H]3[C@@H](CCC4=CC(=O)CC[C@@]43C)[C@@H]1CC[C@@H]2C(=O)CO | inactive [sample A] and active: 30.6 µM [sample B]

Assay: A CellTox Green Cytotoxicity Assay to monitor cytotoxicity in HEK293 cells - 24 hour (AID 1224875); note: nearly all actives have a fitted effect of over 45% in size
Conditions: CellTox Green fluorescence; series mostly up to 76.8 µM
Outline: (§1)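 Nonlytic real-time cytotoxicity: HEK293 + CellTox Green reagent plated, 5 h preincubation, pintool compound addition (23 nL in DMSO), 37 C for 40 h, fluorescence measured at successive time points.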

Row | Compound | Potency
17 | c1ccc2c(c1)Oc1ccccc1S2 | active: 55.8 µM [sample A] and inactive [sample B]
18 | CC(=O)C1(C)CC2=C(CCCC2(C)C)CC1C (configuration not stated) | inactive [sample A] and active: 49 µM [sample B]
19 | CC1=CC2C3CC(C=C3C)C2C1 (configuration not stated) | inactive [sample A] and active: 38.9 µM [sample B]
20 | Cn1cnc([N+](=O)[O-])c1Sc1ncnc2nc[nH]c12 | active: 34.5 µM [sample A] and inactive [sample B]
21 | c1ccc(Nc2ccccc2)cc1 | active: 19.5 µM [sample A] and inactive [sample B]
22 | CCC(C)c1ccccc1O (configuration not stated) | active: 34.4 µM [sample A] and inactive [sample B]
23 | O=C(c1ccc(OCCN2CCCCC2)cc1)c1c(-c2ccc(O)cc2)sc2cc(O)ccc12 | active: 49 µM [sample A] and inactive [sample B]
24 | OC1CCCCCCCCCCC1 | inactive [sample A] and active: 43.6 µM [sample B]

Assay: A CellTox Green Cytotoxicity Assay to monitor cytotoxicity in HEK293 cells - 16 hour (AID 1224888); note: nearly all actives have a fitted effect of over 35% in size
Conditions: CellTox Green fluorescence; series mostly up to 76.8 µM
Outline: as §1

Row | Compound | Potency
25 | CC1=CC2C3CC(C=C3C)C2C1 (configuration not stated) | inactive [sample A] and active: 27.5 µM [sample B]
26 | CCC(C)c1ccccc1O (configuration not stated) | active: 24.4 µM [sample A] and inactive [sample B]
27 | OC1CCCCCCCCCCC1 | inactive [sample A] and active: 43.6 µM [sample B]
